Experimental data from PubChem BioAssay AID2546 (National Center for Advancing Translational Sciences (NCATS), 2010).
Hit rate of the full screen: of about 310,000 compounds, about 11,000 (3.5%) were called active. Inconclusive means that the source gave no clear call. Such entries were picked first, then a sample of the others. Calls come from the whole dose curve; as a rule, active = well fitted inhibition curve with a large enough effect; inconclusive = small, poorly fitted or top-dose-only effect, or effect the other way; inactive = flat fitted curve, though single readings scatter. Potencies of inconclusive entries are left out as doubtful fits. A structure can be active in one record and inactive in another.
% is set by controls: 0 for no effect and ±100 for the full control effect; potency is the fitted concentration of half-maximal effect; tags give direction and shape of the fitted curve.

Assay: VP16 counterscreen qHTS for inhibitors of ROR gamma transcriptional activity;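 note: Gal4-VP16 expression switched on by copper sulfate through the metallothionein promoter; nearly all actives have a fitted effect of over 50% in size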
Conditions: Drosophila S2 Gal4-VP16 UAS-luciferase, luminescence, 20 h; activity, negative = inhibition: at 53.6 µM (top of the series)
In the case of `Cc1cccc(CNC(=O)c2ccc(NC(=O)C3=CSCCO3)cc2)c1`, the “activity, negative = inhibition” value is reported as inactive: -11.6%.
For `Oc1c(Cl)cc(Cl)cc1C=Nc1cc(C(F)(F)F)ccc1N1CCc2ccccc2C1`, the Potency was inconclusive [inhibitor, single point].
For `CC(/C=N\NC(=O)Cn1c(C)nc2ccccc21)=C\c1ccccc1`, the Potency was active: 12.6 µM.
In the case of `Cc1ccc(NC(=O)COc2cccnc2[N+](=O)[O-])cc1S(=O)(=O)N1CCCCC1`, the Potency is reported as inconclusive [inhibitor, single point].
With `CCN(CC)c1ccc(-c2nn3c(-c4cccnc4)nnc3s2)cc1` the Potency was inconclusive [inhibitor, single point].
For `S=C(NCc1ccc2c(c1)OCO2)NCc1ccc2c(c1)OCO2`, the Potency was inconclusive [inhibitor, partial curve].
In the case of `Cc1[nH]c(C(=O)N/N=C/c2ccc(N(C)C)cc2)c(C)c1C(=O)N/N=C/c1ccc(N(C)C)cc1`, the “activity, negative = inhibition” value is reported as inactive: -2.49%.
In the case of `FC(F)(F)c1ccccc1NC(=S)N1CCc2ccccc2C1`, the Potency is reported as inconclusive [inhibitor, single point].
For `COc1ccc(N2C(=O)/C(=C\c3ccco3)N=C2SCC(=O)NC(C)C)cc1Cl`, the Potency was inconclusive [inhibitor, single point].
In the case of `Nc1cc(=O)[nH]c(SCC(=O)Nc2ccccc2Sc2ccccc2)n1`, the “activity, negative = inhibition” value is reported as inactive: -10.4%.
For `CCN(CC)C(=O)CNc1ccc(C(F)(F)F)cc1[N+](=O)[O-]`, the “activity, negative = inhibition” value was inactive: -3.16%.
For `O=C(Nc1c2c(nn1-c1ccc(Cl)cc1)CS(=O)(=O)C2)C1CC1`, the “activity, negative = inhibition” value was inactive: 1.67%.
For `C=CCn1c(CNS(=O)(=O)c2ccc(Cl)cc2)n[nH]c1=S`, the “activity, negative = inhibition” value was inactive: -1.32%.
For `Cc1[nH]c(=S)sc1Cc1ccc(F)cc1`, the Potency was active: 10 µM.
In the case of `O=C(Nc1ccc([N+](=O)[O-])cc1)Nc1cnccn1`, the “activity, negative = inhibition” value is reported as inactive: -20%.
With `CCN(CC)C(=O)c1sc2nc(-c3ccccc3)ccc2c1N` the Potency was inconclusive [activator, full curve].
With `CCCn1c(C(=O)OC)cc2c1ccn2-c1ccc(F)cc1` the Potency was inconclusive [inhibitor, single point].
For `COC(=O)c1sc2ncccc2c1OCc1ccc(Cl)cc1Cl`, the Potency was inconclusive [inhibitor, single point].
For `COc1cc(OC)c(N(C)S(=O)(=O)c2cccc(C(=O)NC3=NCCS3)c2)cc1Cl`, the Potency was inconclusive [inhibitor, single point].
For `Clc1ccccc1-c1nnc2sc(CCc3ccccc3)nn12`, the Potency was inconclusive [inhibitor, single point].
With `CNC(=S)N/N=C/c1ccc2c(c1)OCCO2` the Potency was active: 0.631 µM.
With `O=C1C2C3C=CC(C4CC34)C2C(=O)N1/N=C/c1ccc(-c2ccc(Cl)cc2[N+](=O)[O-])o1` (stereo unspecified) the “activity, negative = inhibition” value was inactive: 0.46%.
In the case of `CN(C)c1ccc(C(=C2C=CC(=[N+](C)C)C=C2)c2ccc(N(C)C)cc2)cc1`, the Potency is reported as active: 1.58 µM.
For `O=C(COc1ccccc1Cl)NC(=S)Nc1ccccc1N1CCCC1`, the Potency was active: 7.94 µM.
For `COc1ccc(-c2csc(NC(=S)NC(=O)/C=C/c3ccco3)n2)cc1OC`, the Potency was active: 14.1 µM.
With `CCCCN(CCCC)CCNC(=O)CNC(=O)c1cccs1` the Potency was inconclusive [inhibitor, partial curve].
In the case of `Cc1ccc(OCCSCc2nnc(NC(=O)Nc3cccc(Cl)c3)s2)cc1`, the Potency is reported as inconclusive [inhibitor, single point].
For `CC(=O)Nc1ccc2nc(NC(=O)CN3CCOCC3)sc2c1`, the “activity, negative = inhibition” value was inactive: -2.41%.
With `Cc1ccc2[nH]c3c(NCc4ccccc4)ncnc3c2c1` the Potency was inconclusive [inhibitor, single point].
In the case of `O=C(/C=C/c1cnc2ccccc2n1)NC12CC3CC(CC(C3)C1)C2`, the Potency is reported as inconclusive [inhibitor, single point].
In the case of `O=[N+]([O-])c1cc(S(=O)(=O)NCCN2CCOCC2)ccc1Sc1nnnn1-c1ccccc1`, the Potency is reported as active: 20 µM.
With `CCN(CC)S(=O)(=O)c1cc([N+](=O)[O-])ccc1NNC(=O)Nc1ccc(Cl)c(Cl)c1` the Potency was inconclusive [inhibitor, single point].
For `COc1cc2c(cc1OC)C(c1ccccc1Br)NC(=O)C2` (stereo unspecified), the “activity, negative = inhibition” value was inactive: -3.64%.
In the case of `CC(C)OCCCn1c(-c2ccc(Br)cc2)c[nH]c1=S`, the Potency is reported as active: 2.82 µM.
In the case of `COc1ccc(/C=N/Nc2cc(C)nc3ccc(OC)cc23)c(OC)c1`, the Potency is reported as active: 10 µM.
With `COc1ccc(N=Cc2[nH]c3ccccc3c2O)cc1` the Potency was inconclusive [activator, partial curve].
In the case of `Cc1ccc(N2CN(CCC3=CCCCC3)CNC2=S)cc1`, the Potency is reported as active: 6.31 µM.
In the case of `Cc1cccc(NC(=O)CSc2nnc(CCC(=O)Nc3ccc(C)c(Cl)c3)n2C)c1`, the Potency is reported as inconclusive [inhibitor, single point].
For `CC1CCN(S(=O)(=O)c2cc(C(=O)N3CCN(c4ncccn4)CC3)ccc2Br)CC1`, the Potency was active: 7.08 µM.
In the case of `Oc1ccc(NCc2ccccc2OCc2ccccc2)cc1`, the Potency is reported as inconclusive [inhibitor, single point].
For `Cc1cc(C)cc(C(=O)NC(=S)Nc2cccnc2)c1`, the Potency was inconclusive [inhibitor, single point].
With `Cc1ccc(Nc2cc(C)nc(NCc3ccccc3)n2)cc1` the Potency was inconclusive [inhibitor, single point].
In the case of `Cc1ccccc1/C(N)=N/O`, the “activity, negative = inhibition” value is reported as inactive: 2.5%.
For `Cc1nn(-c2ccccc2)c2sc(C(=O)c3c(N)n(C)c(=O)n(C)c3=O)cc12`, the Potency was inconclusive [inhibitor, full curve].
In the case of `CC(C)(C)c1cc(Br)c(O)c(N=Nc2ccc(S(=O)(=O)N3CCOCC3)cc2)c1`, the Potency is reported as inconclusive [inhibitor, single point].
With `COc1ccc(/C=N/Nc2nncc3ccccc23)c(OC)c1` the Potency was active: 22.4 µM.
With `CCCn1cnc2scc(-c3ccc(C)c(C)c3)c2c1=O` the “activity, negative = inhibition” value was inactive: -5.14%.
For `Cc1cc(OC(=O)c2cc(Br)ccc2Cl)c([N+](=O)[O-])c(=O)[nH]1`, the Potency was inconclusive [inhibitor, partial curve].
With `COc1ccccc1N=Cc1nc(-c2ccccc2)oc1OC(C)=O` the Potency was inconclusive [inhibitor, partial curve].
In the case of `COc1cccc(NC(=O)N2CCN(c3cccc(C)c3C)CC2)c1`, the Potency is reported as inconclusive [activator, single point].
In the case of `CCOC(=O)c1c(CSc2ccccc2)n(C)c2cc(Br)c(O)c(CN(C)C)c12`, the “activity, negative = inhibition” value is reported as inactive: -5.38%.
For `COc1ccc(-c2n[nH]c(=S)n2-c2ccccc2C)cc1OC`, the Potency was inconclusive [inhibitor, single point].
For `CC(C)(C)C(=O)NC(=S)NNC(=O)c1ccc(Cl)cc1Cl`, the Potency was inconclusive [inhibitor, single point].
With `Cn1cccc1/C=N/n1c(-c2ccc(Cl)cc2)n[nH]c1=S` the Potency was inconclusive [inhibitor, full curve].
In the case of `O=C(CN1CCN(c2ccccn2)CC1)N(c1ccccc1)c1ccc2ccccc2c1`, the “activity, negative = inhibition” value is reported as inactive: 7.9%.
With `COc1ccc(-c2n[nH]c(C)c2-c2cnn(-c3ccccc3)c2)c(O)c1C` the Potency was inconclusive [inhibitor, single point].
In the case of `O=C(NCc1ccco1)C(c1ccccc1)N(C(=O)Cc1cccs1)c1ccccc1` (stereo unspecified), the Potency is reported as inconclusive [inhibitor, single point].
With `O=S(=O)(c1cccc(-c2nn3c(-c4ccncc4)nnc3s2)c1)N1CCOCC1` the “activity, negative = inhibition” value was inactive: -8.32%.
For `CN(C)/C=C/C(=O)c1cccc(Cl)c1`, the Potency was active: 10 µM.
In the case of `COc1ccc(C(=O)CCc2ccccc2O)c(OC)c1`, the Potency is reported as inconclusive [activator, single point].
With `O=C(CCSc1ccccc1)N1CCN(c2ccccc2F)CC1` the Potency was inconclusive [inhibitor, single point].
With `Cc1cnc(NC(=O)CSc2ncc(-c3ccccc3)n2Cc2ccco2)s1` the “activity, negative = inhibition” value was inactive: -28.8%.
For `COc1ccc(-c2cc(C3CCN(c4cc(Cl)nc(N)n4)CC3)[nH]n2)cc1`, the “activity, negative = inhibition” value was inactive: -23.9%.
For `O=C(c1ccco1)c1coc2c1cc(O)c1ccccc12`, the “activity, negative = inhibition” value was inactive: 0.333%.
In the case of `Cc1cc([N+](=O)[O-])ccc1NC(=O)CSc1nncn1-c1cccnc1`, the “activity, negative = inhibition” value is reported as inactive: -26.2%.
For `Cn1c(O)c(/C=N/NC(=O)c2cc3ccccc3cc2O)c2ccccc21`, the Potency was inconclusive [inhibitor, single point].
In the case of `CCc1c(C(=O)Nc2cc(C)cc(C)c2)[nH]c(C)c1C(C)=O`, the Potency is reported as inconclusive [inhibitor, single point].
In the case of `CCC(C)[C@H]1CNC(=S)N1CCc1cccc2ccccc12` (stereo partly specified), the Potency is reported as active: 4.47 µM.
For `Cn1cccc1/C=N/N1CCN(c2ccccn2)CC1`, the Potency was inconclusive [inhibitor, single point].
With `Clc1ccccc1COc1ccccc1-c1nnco1` the Potency was inconclusive [inhibitor, single point].
With `CCCCCCN=C(C)C1=C(O)C(C(=O)OC)C(C)(C)CC1=O` (stereo unspecified) the Potency was inconclusive [inhibitor, single point].
In the case of `O=c1ccc2ccc(O[C@@H]3O[C@H](CO)[C@@H](O)[C@H](O)[C@H]3O)c(O)c2o1`, the “activity, negative = inhibition” value is reported as inactive: 2.18%.
In the case of `CCOc1cc(NC(=S)NCC2CCCO2)c(OCC)cc1NC(=O)c1cccc(C)c1` (stereo unspecified), the Potency is reported as active: 11.2 µM.
With `Cc1nc2c(sc3nc4c(cc32)COC(C)(C)C4)c(=O)o1` the activity, negative = inhibition was inactive: 2.46% [at 0.365 µM].
With `CC(=O)c1ccc(S(=O)(=O)N2CCCC2)cc1` the Potency was inconclusive [inhibitor, single point].
In the case of `C/C(=N\NC(=O)c1ccc(NS(=O)(=O)c2cccs2)cc1)c1ccc2ccccc2c1`, the Potency is reported as inconclusive [inhibitor, single point].
